# The supplement of paper PMC10037445
# Values joined by “and” are separate entries in the source; they are usually repeats but may differ in a detail not shown here. Equal values may be shown once. Over roughly 2,900 compounds, “IRF Lucia reporter activity, fold change vs agonist alone” has its median near 0.9; the highest 2% begin near 2.8. The list shows a part of the results.
# What was measured:
# [1] = system: RAW-Dual; experiment: IRF Lucia reporter activity, fold change vs agonist alone; cytotoxicity flag (confluency mask): not cytotoxic; higher = enhanced IRF activity
# Method in brief: (§1)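 After 50 nL of library stock was delivered by pin tool to RAW-Dual macrophages (50,000 cells/well, DMEM, 384-well plates), a PRR agonist was added 1 h later and the plates were kept at 37 °C, 5% CO2. Twenty hours later, IRF was read from supernatant by QuantiLuc luminescence and NF-κB by QuantiBlue absorbance at 620 nm. Reporter activity is stated as fold change over agonist-alone wells. Wells with IncuCyte confluency under 70% of agonist controls in both mask sets were counted as cytotoxic.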
# [2] = system: RAW-Dual; experiment: IRF Lucia reporter activity, fold change vs agonist alone; higher = enhanced IRF activity; conditions: library stock concentration (final ~1000-fold dilution): 10 mM, agonist: MPLA (TLR4) […]
# Method in brief: as §1
# [3] = system: RAW-Dual; experiment: IRF Lucia reporter activity, fold change vs agonist alone; cytotoxicity flag (confluency mask): cytotoxic (confluency <70% of control); higher = enhanced IRF activity
# Method in brief: as §1
# [4] = agonist: 3'3'-cGAMP (STING) 10 ug/mL
# [5] = cytotoxicity flag (confluency mask): not cytotoxic
# [6] = cytotoxicity flag (confluency mask): cytotoxic (confluency <70% of control)
structure (smiles),measurement,setting,value
COC(=O)NC(C(=O)NC(Cc1ccccc1)C(O)CN(Cc1ccc(-c2ccccn2)cc1)NC(=O)C(NC(=O)OC)C(C)(C)C)C(C)(C)C.O=S(=O)(O)O (stereo not drawn) (library stock concentration (final ~1000-fold dilution): 10 mM),IRF Lucia reporter activity,[1]; [4],0.777
same,IRF Lucia reporter activity,[1]; agonist: LPS (TLR4) 0.1 ug/mL,0.895
O=C(NOCC(O)CO)c1cc(Br)c(F)c(F)c1Nc1ccc(I)cc1F (stereo not drawn) (library stock concentration (final ~1000-fold dilution): 10 mM),IRF Lucia reporter activity,[1]; [4],0.713
same,IRF Lucia reporter activity,[1]; agonist: LPS (TLR4) 0.1 ug/mL,2.11
O=C(NOCC(O)CO)c1cc(Br)c(F)c(F)c1Nc1ccc(I)cc1F (stereo not drawn),IRF Lucia reporter activity,[2]; [5],2.39
CN(C)CC(c1ccc(O)cc1)C1(O)CCCCC1 (stereo not drawn) (library stock concentration (final ~1000-fold dilution): 10 mM),IRF Lucia reporter activity,[1]; [4],1.09
same,IRF Lucia reporter activity,[1]; agonist: LPS (TLR4) 0.1 ug/mL,0.87
CN(C)CC(c1ccc(O)cc1)C1(O)CCCCC1 (stereo not drawn),IRF Lucia reporter activity,[2]; [5],0.994
OC1C=C2CCN3Cc4cc5c(cc4C(C1O)C23)OCO5 (stereo not drawn) (library stock concentration (final ~1000-fold dilution): 10 mM),IRF Lucia reporter activity,[3]; [4],0.281
same,IRF Lucia reporter activity,[3]; agonist: LPS (TLR4) 0.1 ug/mL,1.24
OC1C=C2CCN3Cc4cc5c(cc4C(C1O)C23)OCO5 (stereo not drawn),IRF Lucia reporter activity,[2]; [6],1.39
O=C(O)CCC(=O)OCC(NC(=O)C(Cl)Cl)C(O)c1ccc([N+](=O)[O-])cc1 (stereo not drawn),IRF Lucia reporter activity,[2]; [5],1.05
O=C(O)CCC(=O)OCC(NC(=O)C(Cl)Cl)C(O)c1ccc([N+](=O)[O-])cc1 (stereo not drawn) (library stock concentration (final ~1000-fold dilution): 10 mM),IRF Lucia reporter activity,[1]; [4],1.01
same,IRF Lucia reporter activity,[1]; agonist: LPS (TLR4) 0.1 ug/mL,1.4
O=C(c1ccccc1)c1ccc2n1CCC2C(=O)O (stereo not drawn),IRF Lucia reporter activity,[2]; [5],0.956
O=C(c1ccccc1)c1ccc2n1CCC2C(=O)O (stereo not drawn) (library stock concentration (final ~1000-fold dilution): 10 mM),IRF Lucia reporter activity,[1]; [4],1.08
same,IRF Lucia reporter activity,[1]; agonist: LPS (TLR4) 0.1 ug/mL,0.955
CCC(CC)(NC(=O)C(C)C)C(=O)NC(CCCNC(=N)N)C(=O)NC1(C(=O)NC(c2ccc(F)cc2)c2ccc(F)cc2)CCCC1 (stereo not drawn) (library stock concentration (final ~1000-fold dilution): 10 mM),IRF Lucia reporter activity,[1]; [4],1.27
same,IRF Lucia reporter activity,[1]; agonist: LPS (TLR4) 0.1 ug/mL,0.857
CCC(CC)(NC(=O)C(C)C)C(=O)NC(CCCNC(=N)N)C(=O)NC1(C(=O)NC(c2ccc(F)cc2)c2ccc(F)cc2)CCCC1 (stereo not drawn),IRF Lucia reporter activity,[2]; [5],1.14
Cc1cccc(-c2nc(C(C)(C)C)[nH]c2-c2ccc3nccnc3c2)n1 (library stock concentration (final ~1000-fold dilution): 10 mM),IRF Lucia reporter activity,[1]; [4],0.874
same,IRF Lucia reporter activity,[1]; agonist: LPS (TLR4) 0.1 ug/mL,0.842
Cc1cccc(-c2nc(C(C)(C)C)[nH]c2-c2ccc3nccnc3c2)n1,IRF Lucia reporter activity,[2]; [5],0.695
Cc1ccc(S(=O)(=O)O)cc1.Cn1cc(-c2ccc(F)c(C(F)(F)F)c2)nc1C1CCN(c2ncnc3[nH]ncc23)CC1 (library stock concentration (final ~1000-fold dilution): 10 mM),IRF Lucia reporter activity,[1]; [4],0.8
same,IRF Lucia reporter activity,[1]; agonist: LPS (TLR4) 0.1 ug/mL,0.712
CC1COc2c(N3CCN(C)CC3)c(F)cc3c(=O)c(C(=O)O)cn1c23 (stereo not drawn) (library stock concentration (final ~1000-fold dilution): 10 mM),IRF Lucia reporter activity,[1]; [4],1.03 and 0.979
same,IRF Lucia reporter activity,[1]; agonist: LPS (TLR4) 0.1 ug/mL,0.856 and 0.868
Cl.NCc1ccc(S(N)(=O)=O)cc1,IRF Lucia reporter activity,[2]; [5],0.974
Cl.NCc1ccc(S(N)(=O)=O)cc1 (library stock concentration (final ~1000-fold dilution): 10 mM),IRF Lucia reporter activity,[1]; [4],1.07
same,IRF Lucia reporter activity,[1]; agonist: LPS (TLR4) 0.1 ug/mL,1.14
Cc1n[nH]c2ncc(C(=O)N3CCCC3c3ccc(Cl)cc3)cc12 (stereo not drawn) (library stock concentration (final ~1000-fold dilution): 10 mM),IRF Lucia reporter activity,[1]; [4],0.178
same,IRF Lucia reporter activity,[1]; agonist: LPS (TLR4) 0.1 ug/mL,0.273
CC12CCC3c4ccc(O)cc4CC(CCCCCCCCCS(=O)CCCC(F)(F)C(F)(F)F)C3C1CCC2O (stereo not drawn) (library stock concentration (final ~1000-fold dilution): 10 mM),IRF Lucia reporter activity,[1]; [4],0.388
same,IRF Lucia reporter activity,[1]; agonist: LPS (TLR4) 0.1 ug/mL,1.25
CC12CCC3c4ccc(O)cc4CC(CCCCCCCCCS(=O)CCCC(F)(F)C(F)(F)F)C3C1CCC2O (stereo not drawn),IRF Lucia reporter activity,[2]; [5],0.825
OCC1OC(c2ccc(F)c(Cc3cc4ccccc4s3)c2)C(O)C(O)C1O (stereo not drawn) (library stock concentration (final ~1000-fold dilution): 10 mM),IRF Lucia reporter activity,[1]; [4],1.09
same,IRF Lucia reporter activity,[1]; agonist: LPS (TLR4) 0.1 ug/mL,0.939
Cn1cncc1C(N)(c1ccc(Cl)cc1)c1ccc2c(c1)c(-c1cccc(Cl)c1)cc(=O)n2C (stereo not drawn),IRF Lucia reporter activity,[2]; [6],0.481
Cn1cncc1C(N)(c1ccc(Cl)cc1)c1ccc2c(c1)c(-c1cccc(Cl)c1)cc(=O)n2C (stereo not drawn) (library stock concentration (final ~1000-fold dilution): 10 mM),IRF Lucia reporter activity,[3]; [4],0.374
same,IRF Lucia reporter activity,[3]; agonist: LPS (TLR4) 0.1 ug/mL,0.641
COC(=O)C1=C(C)NC(C)=C(C(=O)OC(C)C)C1c1cccc2nonc12 (stereo not drawn),IRF Lucia reporter activity,[2]; [5],0.844
COC(=O)C1=C(C)NC(C)=C(C(=O)OC(C)C)C1c1cccc2nonc12 (stereo not drawn) (library stock concentration (final ~1000-fold dilution): 10 mM),IRF Lucia reporter activity,[1]; [4],0.868
same,IRF Lucia reporter activity,[1]; agonist: LPS (TLR4) 0.1 ug/mL,0.766
